About 120 (0.25%) of roughly 48,000 compounds were called active. About 4% were inconclusive and are not listed. Calls come from the whole dose curve; as a rule, active = well fitted activation curve with a large enough effect; inconclusive = small, poorly fitted or top-dose-only effect, or another doubt; inactive = no such curve, though single readings can be large or run the other way. The list shows a part of the results.

The experiment in a line: Primary qHTS for Identification of Small Molecule Activators of Huntingtin-Antisense Promoter Activity. Note: nearly all actives have a fitted effect of over 55% in size. The conditions noted are these: HEK293 HTT-AS promoter firefly luciferase reporter (activity 0% = vehicle and -100% = no light), 24 h; series mostly up to 57.5 µM; activity change, positive = activation: at the top concentration. In short, it runs like this: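 HEK293 Fluc reporter, 2,500 cells/well, 24 h pre-culture; cpds up to 57.5 uM final, 24 h 37 degrees C; Dual-Glo, 10 min RT; normalized vehicle = 0%, zero RLU = -100%.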
(In general: In qHTS, concentration-response curves come from the screen itself.)
As for `COc1cccc(NC(=O)CSCc2cc(=O)c3ccc(C)c(C)c3[nH]2)c1`, the “activity change, positive = activation” value was inactive: -16.7%.

On to `COCCn1c2c([n+](Cc3cnccn3)c1C)C(=O)c1ccccc1C2=O`, for which the “activity change, positive = activation” value was inactive: -94.5%.

In the case of `Cn1c(=O)c2c(n3c4ccccc4nc13)NC(=O)CC2c1cccc(F)c1` (stereo not drawn), the “activity change, positive = activation” value is inactive: -1.76%.

Regarding `Cc1nn2c(=O)cc(COC(=O)c3cccc(NC(=O)COc4ccccc4Cl)c3)nc2s1`, the “activity change, positive = activation” value was inactive: -12.4%.

In the case of `Cc1ccc(C(=O)c2cn(Cc3cccc(C)c3)c3nc(C)ccc3c2=O)cc1`, the “activity change, positive = activation” value was inactive: -17.4%.

Turning to `COc1ccc(NC(=O)Cn2c(=O)n(-c3ccccc3)c(=O)c3c4c(sc32)CCCC4)c(OC)c1`, the “activity change, positive = activation” value is inactive: -7.97%.

As for `Cc1ccc(NC(=O)CSc2ncc(S(=O)(=O)c3ccc(C(C)C)cc3)c(=O)[nH]2)cc1C`, the “activity change, positive = activation” value is inactive: -15.4%.

Turning to `CC(C)Oc1ccc(CNS(=O)(=O)c2ccc3c(c2)C(C)(C)C(=O)N3C)cc1`, the “activity change, positive = activation” value was inactive: -15.3%.

In the case of `Cc1ccc(CNC(=O)c2nc(SCc3ccc(F)cc3)ncc2Cl)cc1`, the “activity change, positive = activation” value is inactive: -23%.

For the compound `COc1ccc(S(=O)(=O)n2nc(C)c(S(=O)(=O)N3CCCCCC3)c2C)cc1`, the “activity change, positive = activation” value was inactive: -6.85%.

On to `Cc1cc(C)n2c(Nc3ccc4c(c3)OCCO4)c(-c3ccc(Cl)cc3)nc2n1`, for which the “activity change, positive = activation” value is inactive: 3.72%.

`COC(=O)c1cc(S(=O)(=O)N2CCN(c3ccc(OC)cc3)CC2)c[nH]1`: the “activity change, positive = activation” value was inactive: -20.8%.

`CCn1c(=O)c2cc(C(=O)NCCCOC)sc2c2ccccc21`: the “activity change, positive = activation” value was inactive: -16.6%.

As to `Cc1cc(C)n(-c2nc3ccccc3nc2Nc2ccc(Cl)cc2Cl)n1`, the “activity change, positive = activation” value was inactive: -13.6%.

Take `COc1ccc(CNC(=O)CCC2N=C3c4ccccc4N=C(SCc4cccc(F)c4)N3C2=O)cc1` (stereo not drawn): the “activity change, positive = activation” value was inactive: 0%.

Consider `CC(=O)N1CCCc2cc(S(=O)(=O)NCc3cccc(C)c3)ccc21`, for which the “activity change, positive = activation” value is inactive: -18.4%.

For the compound `CCCN(CCC)C(=O)Cn1nnc2sc(-c3ccccc3)cc2c1=O`, the “activity change, positive = activation” value is inactive: 2.87%.

With `Clc1ccc2c(c1)-c1c(cnc3cc(-c4ccccc4)nn13)CO2`, the “activity change, positive = activation” value was inactive: 3.12%.

For `COc1ccc(N2CCN(C(=O)c3cnn(-c4ccc(F)cc4)c3-n3cccc3)CC2)cc1`, the “activity change, positive = activation” value was inactive: -10.3%.

As for `CCC1CCCCN1CCCNC(=O)CN1C(=O)c2cccnc2Oc2ccc(C)cc21` (stereo not drawn), the “activity change, positive = activation” value is inactive: -2.12%.

With `O=C(Nc1ccc(Br)cc1F)C1CCN(c2nc3ccccc3[nH]2)CC1`, the “activity change, positive = activation” value was inactive: -23%.

Regarding `O=C1CCCc2cc(S(=O)(=O)N3CCCC(C(=O)Nc4ccc(F)c(Cl)c4)C3)ccc2N1` (stereo not drawn), the “activity change, positive = activation” value was inactive: -40.1%.

In the case of `CCOc1cc2[nH]c(=O)n(CCCCC(=O)N3CCN(c4ccc(OC)cc4)CC3)c(=O)c2cc1OCC`, the “activity change, positive = activation” value was inactive: -11.5%.

In the case of `CCOc1ccc(C(=O)Nc2nnc(S(=O)(=O)Nc3ccccc3)s2)cc1`, the “activity change, positive = activation” value is inactive: 0.523%.

Take `CSc1cccc(Nc2cc(C(=O)NCCc3ccc(Cl)cc3)c3ccccc3n2)c1`: the “activity change, positive = activation” value was inactive: -38.9%.

Regarding `CC1CN(C(=O)N2CCC(C(=O)N3CCN(c4ccccc4)CC3)CC2)c2cc(Cl)ccc2O1` (stereo not drawn), the “activity change, positive = activation” value was inactive: -21.2%.

On to `CCOc1ccc2nc(N3CCC(C(=O)Nc4ccccc4CC)CC3)sc2c1`, for which the “activity change, positive = activation” value was inactive: 3.99%.

Take `Cc1cc(N2CCCCC2)nc2ccc(NC(=O)/C=C/c3ccc(OC(C)C)cc3)cc12`: the “activity change, positive = activation” value was inactive: -16.4%.

`CCCN1CCN(C(=O)Cn2c(-c3cccs3)cc3ccccc32)CC1`: the “activity change, positive = activation” value was inactive: -13.4%.

As for `COCCCNC(=O)C1CCN(C(=O)c2cnn(-c3ccccc3)c2-n2cccc2)CC1`, the “activity change, positive = activation” value was inactive: -3.95%.

`Cc1ccc(NC(=O)c2cnc(N3CCCCC3)c3ccccc23)c(C)c1`: the “activity change, positive = activation” value was inactive: -3.17%.

As to `CCCCOc1ccc(C2=NC(c3cccs3)=Nc3ccc(CC)cc3N2)cc1`, the “activity change, positive = activation” value is inactive: 17.3%.

In the case of `CC(C)CC(=O)Nc1nc2nc(-c3ccccc3)cc(=O)n2[nH]1`, the “activity change, positive = activation” value is inactive: -8.54%.

Regarding `COC(=O)c1c(Oc2ccc(OC)cc2)nnc(-c2ccccc2)c1-c1ccccc1`, the “activity change, positive = activation” value was inactive: -35.2%.

Take `Cc1ccc(N2C(=O)NC(NS(=O)(=O)c3ccccc3)(C(F)(F)F)C2=O)cc1C` (stereo not drawn): the “activity change, positive = activation” value was inactive: -11.1%.

As to `CCOC(=O)c1ccc(O)c(O)c1`, the “activity change, positive = activation” value was inactive: 11%.

Turning to `COc1ccc(CNC(=O)CCCn2nc(C)c3sc4ccccc4c3c2=O)cc1OC`, the “activity change, positive = activation” value is inactive: -9.2%.

Turning to `CCOc1ccccc1CNC(=O)c1ccc(N2Cc3ccccc3Oc3ncccc32)s1`, the “activity change, positive = activation” value was inactive: -18.6%.

On to `Cc1cccc(NC(=O)N2CCN(C(=O)c3nsc4ccccc34)CC2)c1C`, for which the “activity change, positive = activation” value was inactive: -22.5%.

`Cc1ccc2c(CC(=O)Nc3ccc(S(=O)(=O)N4CCCCC4C)cc3)coc2c1` (stereo not drawn): the “activity change, positive = activation” value is inactive: 0%.

For the compound `Cn1cc(-c2[nH]c3cc(NC(=O)[C@H](N)C4CCCCC4)cc4c3c2C=NNC4=O)cn1`, the “activity change, positive = activation” value is inactive: -33.4%.

As to `Cc1ccc(CNC(=O)c2cccn2-c2nnc(N3CCCC3)s2)cc1`, the “activity change, positive = activation” value was inactive: -0.503%.

`COc1cccc(NC(=O)CN2C(=O)CSc3ccc(S(=O)(=O)N4CCCC4)cc32)c1`: the “activity change, positive = activation” value was inactive: -21.7%.

In the case of `COc1ccc(CCNC(=O)CSc2cn(CCNC(=O)c3cccc(C(F)(F)F)c3)c3ccccc23)cc1OC`, the “activity change, positive = activation” value is inactive: -42.8%.

`CCC1CN(C(=O)Nc2cccc3c2CCCC3)c2cc(Cl)ccc2O1` (stereo not drawn): the “activity change, positive = activation” value is inactive: -31.2%.

Take `O=C(Cn1ncc2ccsc2c1=O)N1CCN(c2ccc(F)cc2)CC1`: the “activity change, positive = activation” value is inactive: -12.2%.

Turning to `Cc1ccc(-n2ncc3c(N4CCC(C(N)=O)CC4)ncnc32)cc1`, the “activity change, positive = activation” value was inactive: -83.1%.

For the compound `Cc1ccc(S(=O)(=O)N2CCc3cc(C(=O)Nc4ccc(C(F)(F)F)cc4)ccc32)cc1`, the “activity change, positive = activation” value is inactive: -4.34%.

The values above are taken from PubChem BioAssay AID1508624 (National Center for Advancing Translational Sciences (NCATS), 2021).
